Results: the RNAGym collection of RNA variant scans (doi:10.1073/pnas.2313332121)
Variants at the floor of the assay are shown more often than the library holds them.

B1: TPR 5TU (parent)
chain: GGAUCUUCUCGAUCUAACAAAAAAGACAAAUCUGCCACAAAGCUUGAGAGCAUCUUCGGAUGCAGAGGCGGCAGCCUUCGGUGGCGCGAUAGCGCCAACGUUCUCAACUAUGACACGCAAAACGCGUGCUCCGUUGAAUGGAGUUUAUCAUG

Variants of: B1
Test: polymerase ribozyme fitness, log enrichment relative to wild type (log ratio); higher = more active; in vitro selection for triplet polymerase activity
How it was run: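 Both subunits of a heterodimeric triplet polymerase ribozyme were given their own mutant library, built by PCR and transcribed. Each library was annealed with a biotinylated primer, the partner subunit and triplets, incubated frozen at −7 °C, and its extended constructs gel-excised, captured on streptavidin beads and amplified by RT-PCR, all in one round done in triplicate. Fitness is the logarithm of genotype enrichment relative to wild-type enrichment, with replicates averaged by inverse-variance weighting. That logarithm is base 2, and Illumina-sequenced genotypes needed ≥10 input reads and ≥1 read per output.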

Variant	polymerase ribozyme fitness (log ratio)
A3C A16G A24U G48U G74U G83A A107C U130A	≤ -4.2
A3C U13G G62A A66C U145A	≤ -4.2
A3C U56A C69A C93U G126A U139G	-2.53
A3G C43U A60C G84A U130A	≤ -4.2
A3C C5U C27G U77G C93G	≤ -4.2
A3G C5G G84A G88A	-3.09
A3C C69U G92A C114A C118A G133C	≤ -4.2
A3C A49C C96A	≤ -4.2
A3C A17U A49U G58U A73U U127C G133A U135C U144G	≤ -4.2
A3C A29C C35A A147C	≤ -4.2
A3C A22U A49U A52G U56A	-3.02
A3G C35A C43U G48C C51U U61G U102C	≤ -4.2
A3U A12U G80C U135A	≤ -4.2
A3C C8A A29C A52C C54A C93A C96G C108A U134C	≤ -4.2
A3U C38U U45C G92A U102A C108G C125A U134C	≤ -4.2
A3U A20U C32U G70U G84U A120C	≤ -4.2
A3U A22U A26U A49G U55C G88U C93G	≤ -4.2
A3G A16C A22G A73G G84U C123U	≤ -4.2
A3C A41G G84A G126C	-0.499
A3C C14G A24U G70A C79U C87A A113G C131A	≤ -4.2
A3G A16U G25U A41U G46A U82G	≤ -4.2

Variant	polymerase ribozyme fitness (log ratio)
A3C A12U A49G G59A C72G G88C	≤ -4.2
A3U A26U U82A C129G G136A	≤ -4.2
A3C A19C G46C G65U C75U C105G A107C A150C	≤ -4.2
A3G U56A C72U A91U C132A	≤ -4.2
A3C C14A A26G G50C A91G G117A C125U G140A G143C	≤ -4.2
A3G U53G C85G C93G C125U G141A A142G	≤ -4.2
A3C A19C A40U A47U A49C U90C U109G A121G	≤ -4.2
A3U A20C A26U C57G C108U	≤ -4.2
A3C U4A G71U G88A	≤ -4.2
A3G G58A G86U U111G U135G G136U U145A	≤ -4.2
A3G C27U G50A C51U C85A G140U	≤ -4.2
A3U A47C C93U C118U	-2.05
A3C A23U C54U A66C G94C C129G A147U	≤ -4.2
A3U A49G	-0.232
A3U C35G C57A A64C G86U C116G G143A	≤ -4.2
A3G A20U C36A C87G C129A U139C U146G	≤ -4.2
A3G U33G G58A G67U G94A A110U C125A U135C	≤ -4.2
A3G C18U G34U C95U A115C	-4.09
A3G A28U G50U A89U	≤ -4.2
A3G G25U A89U	≤ -4.2
A3U A64G G83A C93A A142C G143A U144G	≤ -4.2

Variant	polymerase ribozyme fitness (log ratio)
A3G C18A A19G U33G C125U	≤ -4.2
A3G A12C A39G A97U G133A G143C	≤ -4.2
G1U	0.22
A3U C5G C18U U31A C76U G94U	-1.46
A3C A20U C63U C79A C103A C149A A150G	≤ -4.2
A3U A52C G80A G83A C93G	≤ -4.2
A3G A12U A20U A24C C85A C93U	≤ -4.2
A3U A12G A28U C87U	≤ -4.2
A3G U13G A21U A40U C69A C79G G80A G83U C85U G86U G136C	≤ -4.2
A3G U13G U144C	0.104
A3C U7A C10U U53A G92C A138G	≤ -4.2
A3G U7C U13G G65U A66C A89U C95A C125G	≤ -4.2
A3G U6A A24U C43A C93U C125U G143A	≤ -4.2
A3U A29G A49C G92A G124U G140A	≤ -4.2
A3C C8U C18U A49G C87A	≤ -4.2
A3U A122U G133U	≤ -4.2
A3U A26U U82G C131G U135A	≤ -4.2
A3U C57A G58C G59C G86A C114U A120G U127A A147U	≤ -4.2
A3C A49G G86A C105A C108A	≤ -4.2
A3U C14G A73G G88C A91G C93A C96U	≤ -4.2
A3C A47G A52G C87U C96U C99U G124A	-4.19

Variant	polymerase ribozyme fitness (log ratio)
A3C G59A C85G C99U A120G	≤ -4.2
A3G G11A C32U C85G C87A G124U	≤ -4.2
A3U A29C C43G C54G A73G C85G U90C G92U C99U A107G C116U U148C	≤ -4.2
A3C A47U	-0.813
A3G C32G C35U A49C G50C C85A C103U C118G	≤ -4.2
A3G A64G C85G G88C A107G	≤ -4.2
A3C C51G U55G C75U C118A	≤ -4.2
A3C A22U A41C G84A G86A	≤ -4.2
A3C A20G C76U C87G U109G A142C U148A	≤ -4.2
A3C A24G C36U A41U C72U C85A A91U U151A G152C	≤ -4.2
A3G U4C A28G A29U A37C C85A G141C	≤ -4.2
A3C A24U G83U G92A C93G A97G U148A	≤ -4.2
A3C A30C U33A A89C G92A C116A C131A U135C	≤ -4.2
A3G A16C A66U U82G G83U C131U	≤ -4.2
A3G C32G A41C C57U A73U G81C G88C A150G	≤ -4.2
A3C U31G C51U A60C A122C G140A	≤ -4.2
A3U C32U G34U G81U C87G	≤ -4.2
A3C C76U C96A	-0.525
A3U A29U A41C U45A A52U A91U C118G G143A	≤ -4.2
A3G G59A U77C C95U U139G	≤ -4.2
A3G G42C A47U C79A A107G C114G A121U C125G C129A	≤ -4.2
